Measurements reported in article PMC3989272.
Changes are numbered by the printed parent chain. No constants are given. Whether binding was seen depends on the method and setting. For some of these results: In cells and extracts the contact can be indirect. Some entries that bind do so weakly or less than the wild type. For some of these results: Tags and fused reporters may be left off the sequences shown.

By UniProt entry, the sequences of proteins in these tests, tags left out. Where a name states a change or a piece, a line headed by the entry shows the natural chain unless it says otherwise.
UniProt P29476: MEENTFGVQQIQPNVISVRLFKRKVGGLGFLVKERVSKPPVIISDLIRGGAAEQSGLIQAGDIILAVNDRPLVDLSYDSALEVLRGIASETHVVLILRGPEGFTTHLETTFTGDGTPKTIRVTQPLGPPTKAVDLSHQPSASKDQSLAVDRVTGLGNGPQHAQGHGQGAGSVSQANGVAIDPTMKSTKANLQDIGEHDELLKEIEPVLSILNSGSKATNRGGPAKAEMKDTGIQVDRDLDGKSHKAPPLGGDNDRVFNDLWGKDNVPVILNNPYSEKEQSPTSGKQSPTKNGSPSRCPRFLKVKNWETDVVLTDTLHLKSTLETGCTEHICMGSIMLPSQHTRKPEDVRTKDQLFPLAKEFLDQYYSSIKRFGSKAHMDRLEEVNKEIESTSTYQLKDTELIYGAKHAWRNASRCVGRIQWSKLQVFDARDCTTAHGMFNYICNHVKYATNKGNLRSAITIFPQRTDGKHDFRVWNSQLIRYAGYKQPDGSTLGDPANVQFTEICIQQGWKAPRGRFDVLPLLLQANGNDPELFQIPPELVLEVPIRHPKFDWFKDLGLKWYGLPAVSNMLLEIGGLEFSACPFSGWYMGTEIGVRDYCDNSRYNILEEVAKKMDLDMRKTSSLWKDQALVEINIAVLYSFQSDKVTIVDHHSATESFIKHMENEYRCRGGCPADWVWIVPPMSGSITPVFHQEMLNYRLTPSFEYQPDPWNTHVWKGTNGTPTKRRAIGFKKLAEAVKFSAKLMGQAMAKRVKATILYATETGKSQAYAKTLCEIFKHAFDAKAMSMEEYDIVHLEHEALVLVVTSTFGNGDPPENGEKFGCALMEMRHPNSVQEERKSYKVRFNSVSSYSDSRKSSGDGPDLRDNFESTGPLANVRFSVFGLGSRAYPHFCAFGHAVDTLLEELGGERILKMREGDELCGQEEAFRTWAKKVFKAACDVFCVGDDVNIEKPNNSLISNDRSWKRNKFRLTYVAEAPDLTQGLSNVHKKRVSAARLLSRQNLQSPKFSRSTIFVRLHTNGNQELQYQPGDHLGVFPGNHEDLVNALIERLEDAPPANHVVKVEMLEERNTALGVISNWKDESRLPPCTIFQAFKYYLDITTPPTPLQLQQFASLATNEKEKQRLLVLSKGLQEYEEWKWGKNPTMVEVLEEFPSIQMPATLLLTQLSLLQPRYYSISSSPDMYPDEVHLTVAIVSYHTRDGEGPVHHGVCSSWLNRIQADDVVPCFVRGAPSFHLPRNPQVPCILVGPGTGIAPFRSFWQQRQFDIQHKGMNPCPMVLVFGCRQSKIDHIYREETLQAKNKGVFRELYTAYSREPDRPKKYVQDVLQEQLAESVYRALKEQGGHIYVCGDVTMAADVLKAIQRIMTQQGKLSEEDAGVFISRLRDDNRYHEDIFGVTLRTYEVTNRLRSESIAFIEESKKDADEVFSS

What was measured:
[1] = target: T1, recombinant pleckstrin homology domain of PKD1 fused to GST (UniProt Q62101); experiment: pull-down; rat brain extracts (500 µg) incubated for 2 h at 4°C with GST or GST-PH pre-adsorbed onto glutathione-agarose beads; nNOS detected by Western blot; only the target purified
T1 sequence: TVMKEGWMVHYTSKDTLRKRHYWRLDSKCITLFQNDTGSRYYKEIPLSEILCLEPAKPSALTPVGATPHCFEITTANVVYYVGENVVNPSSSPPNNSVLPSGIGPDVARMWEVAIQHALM

[2] = target: T2, C-terminus of rat CAPON (rat); experiment: two-hybrid; one to one yeast two-hybrid; baits fused to the GAL4 DNA-binding domain, nNOS preys fused to the GAL4 activation domain (pGAD); growth on Leu-/Trp-/His- plates with 12 mM 3-amino triazole and X-Gal assay
T2 sequence: ELGDSLDDEIAV

full-length α-syntrophin = target: T3, full-length α-syntrophin (UniProt Q61234); experiment: as above
T3 sequence: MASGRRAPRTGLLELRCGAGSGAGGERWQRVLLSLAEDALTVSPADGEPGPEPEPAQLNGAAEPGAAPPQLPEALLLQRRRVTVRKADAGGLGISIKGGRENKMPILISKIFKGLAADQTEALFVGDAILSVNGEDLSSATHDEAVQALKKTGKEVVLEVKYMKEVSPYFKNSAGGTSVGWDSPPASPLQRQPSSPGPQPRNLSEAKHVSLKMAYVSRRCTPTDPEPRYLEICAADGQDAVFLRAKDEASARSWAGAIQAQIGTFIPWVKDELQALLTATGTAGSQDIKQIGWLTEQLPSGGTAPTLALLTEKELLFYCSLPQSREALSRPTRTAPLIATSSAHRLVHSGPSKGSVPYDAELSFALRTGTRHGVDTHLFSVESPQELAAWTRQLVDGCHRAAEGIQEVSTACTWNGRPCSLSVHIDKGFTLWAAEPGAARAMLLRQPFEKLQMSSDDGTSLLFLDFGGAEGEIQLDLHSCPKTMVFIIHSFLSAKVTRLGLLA

[3] = target: T4, shorter C-terminal sequence of PKD1-Ser916Glu (Pro-591 to Leu-918), two-hybrid bait (UniProt Q62101); experiment: as above
T4 sequence: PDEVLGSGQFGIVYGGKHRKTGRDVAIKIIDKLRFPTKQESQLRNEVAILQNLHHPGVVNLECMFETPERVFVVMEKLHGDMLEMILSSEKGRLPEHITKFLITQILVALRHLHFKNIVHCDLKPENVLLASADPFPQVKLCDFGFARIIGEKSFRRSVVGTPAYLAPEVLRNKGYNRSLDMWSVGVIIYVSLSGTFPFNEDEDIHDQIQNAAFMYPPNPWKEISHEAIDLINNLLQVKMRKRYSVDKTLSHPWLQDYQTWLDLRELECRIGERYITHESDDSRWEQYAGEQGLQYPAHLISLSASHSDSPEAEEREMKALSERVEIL

[4] = target: T5, shorter C-terminal sequence of wild-type PKD1 (Pro-591 to Leu-918), two-hybrid bait (UniProt Q62101); experiment: as above
T5 sequence: T4 sequence with E326S

[5] = target: T1, recombinant pleckstrin homology domain of PKD1 fused to GST; experiment: pull-down; 0.5, 1 and 5 µg of purified nNOS incubated for 2 h at 4°C with 8 µg of GST or GST-PH pre-adsorbed onto glutathione-agarose beads; nNOS detected by Western blot; both purified

Row | Substance | binding [1] | binding [2] | binding (full-length α-syntrophin) | binding [3] | binding [4] | binding [5]
1 | endogenous neuronal nitric oxide synthase (nNOS) (from UniProt P29476 1-1429) (enzyme) | binds | – | – | – | – | –
2 | nNOS PDZ domain (aa 1–102), two-hybrid prey (from UniProt P29476 1-102) (domain or fragment) | – | binds | no binding | no binding | no binding | –
3 | nNOS PDZ domain with the beta-hairpin extension (aa 1–131), two-hybrid prey (from UniProt P29476 1-131) (domain or fragment) | – | binds | binds | no binding | no binding | –
4 | purified full-length rat nNOS (from UniProt P29476 1-1429) (enzyme) | – | – | – | – | – | binds
